Assay results: PubChem BioAssay AID493208 (National Center for Advancing Translational Sciences (NCATS), 2011)
Out of some 44,000 compounds screened, about 340 (0.77%) were called active. Another 5% or so got no clear call; they are omitted. Calls come from the whole dose curve; as a rule, active = well fitted inhibition curve with a large enough effect; inconclusive = small, poorly fitted or top-dose-only effect; inactive = flat fitted curve, though single readings scatter. This is one part of the list.

assay: Acumen qHTS Assay for Inhibitors of the mTORC1 Signaling Pathway in MEF (Tsc2-/-, p53-/-) Cells: Sytravon; conditions: phospho-rpS6 immunofluorescence/PI, 24 h; series mostly up to 38.3 µM; activity change, negative = inhibition: at the top concentration; note: nearly all actives have a fitted effect of over 50% in size;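 for activity change, negative = inhibition: plate controls were DMSO for no effect and rapamycin for full effect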
How it was run: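 Tsc2-/-, p53-/- mouse embryonic fibroblasts (empty-vector line) exposed to compound 24 hrs at 37 C, fixed, immunostained for phospho-rpS6 and counterstained with propidium iodide. Acumen laser scanning gives % positive cells from Alexa 488/PI ratio, thresholded using 7.5 nM rapamycin; PI count gives viability.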
Potency is the fitted concentration of half-maximal effect.

Compound	activity change, negative = inhibition	Potency
COc1ccc(N(C(=O)c2ccc(C(C)(C)C)cc2)S(=O)(=O)c2ccc(Cl)cc2)cc1	inactive: 18%	
COc1ccc(CNC(=O)c2cnn3c(C)c(Cc4c(F)cccc4Cl)c(C)nc23)cc1	inactive: 6.17%	
Cc1ccc(N2CC(NC(=O)c3cccc(Cl)c3)CC2=O)cc1C (stereo unspecified)	inactive: -4.1%	
Cc1cccc(N2CCN(C(=O)c3cnc(N4CCCC4)nc3C)CC2)c1C	inactive: 16.2%	
COc1ccc(C2c3c(n(C)c4ccccc34)C(=O)N2CC(=O)Nc2cccc(Cl)c2C)cc1 (stereo unspecified)	inactive: -0.148%	
CC1CCCN(C(=O)Cn2ncc3c([nH]c4ccccc43)c2=O)C1 (stereo unspecified)	inactive: -1.1%	
CCc1ccccc1Nc1sc(C(=O)c2cccc(OC)c2)c(N)c1S(=O)(=O)c1ccccc1	inactive: -6.35%	
COC(=O)c1c(NC(=O)/C(C#N)=C/c2ccccc2)sc2c1C(C(=O)OC)CC2 (stereo unspecified)	inactive: 4.36%	
CCCCOc1ccc(C(=O)NCc2nnnn2-c2ccc(C)c(C)c2)cc1	inactive: 9.64%	
CCc1ccccc1NC(=O)Cn1c(=O)ccc2cc(S(=O)(=O)N3CCCC3)ccc21	inactive: 1.66%	
CCCSc1ncc(Cl)c(C(=O)N(Cc2ccc(Cl)cc2)Cc2ccco2)n1	inactive: -8.5%	
CCOC(=O)N1CCc2c(sc3c2c(=O)n(-c2ccc(CC)cc2)c(=O)n3C)C1	inactive: -14.4%	
COc1ccc(OCc2ccc(-c3nc(C#N)c(N4CCCCC4)o3)o2)cc1	inactive: -16%	
Cc1ccccc1OCC(=O)N1CCC(c2nc3ccccc3s2)CC1	inactive: -0.64%	
COc1ccc(C(=O)c2c(N)c(C(=O)Nc3cccc(OC)c3)c3ccccn23)cc1	inactive: -3.35%	
Cc1c(C(=O)N(C)C)sc2c1c(=O)n(-c1ccc(Cl)cc1)c(=O)n2CC(=O)C(C)(C)C	inactive: 2.66%	
COc1ccc(-n2c(=O)c3sc4ccccc4c3n(Cc3ccccc3C)c2=O)cc1OC	inactive: -11.6%	
Cc1ccc(NC(=O)Cn2nc(N3CCN(c4ccccc4)CC3)ccc2=O)cc1F	inactive: 5.23%	
COc1ccc(S(=O)(=O)N2Cc3ccccc3CC2C(=O)Nc2ccc(C)cc2C)cc1OC (stereo unspecified)	inactive: 1.61%	
CCOC(=O)c1c(C)[nH]c(C)c1S(=O)(=O)N1CCC(C(=O)NCc2cccc(OC)c2)CC1	inactive: 2.45%	
CCC1CCCCN1S(=O)(=O)c1cc2c3c(c1)CC(=O)N3CCC2 (stereo unspecified)	inactive: 0.872%	
CCC(C(=O)O)n1ccc2cc(S(=O)(=O)N3CCCCC3)ccc21 (stereo unspecified)	inactive: -0.352%	
Cc1ccc(N2CCN(C(=O)C3CCN(S(=O)(=O)c4ccc5c(c4)oc(=O)n5C)CC3)CC2C)cc1 (stereo unspecified)	inactive: -11.1%	
O=c1c2sc3ccccc3c2n(Cc2cccc(Cl)c2)c(=O)n1Cc1ccco1	inactive: -18.6%	

Compound	activity change, negative = inhibition	Potency
CC(=O)c1ccc(NC(=O)CCc2c(C)nn(-c3ccc(N4CCOCC4)nn3)c2C)cc1	inactive: -0.682%	
Cc1cc(C)c(S(=O)(=O)NCCc2cc3ccc(C)c(C)c3[nH]c2=O)c(C)c1	inactive: -16.9%	
COc1ccc(-c2noc(-c3ccc(NCc4cccnc4)c([N+](=O)[O-])c3)n2)cc1OC	inactive: -0.555%	
Cc1cc(NC(=O)c2cc(-c3cccc(Cl)c3)on2)n(-c2ccccc2)n1	inactive: 5.39%	
Cc1ccccc1OCCn1c(=N)n(C(C)C)c2ccccc21		active: 18.5 µM
Cc1cc(C)cc(-n2c(C)nc3cc(C(=O)O)ccc32)c1	inactive: -1.38%	
CCOc1ccc(C2=CC(c3cccc(Br)c3)n3c(nc4ccccc43)N2)cc1Cl (stereo unspecified)	inactive: -7.09%	
Cc1cccc(OCc2nc(CC(=O)Nc3ccc(C)c(C)c3)cs2)c1	inactive: -16.8%	
CCCn1c(CN2CCN(c3ccc(OC)cc3)CC2)nc2c1c(=O)[nH]c(=O)n2C	inactive: -0.748%	
COc1cc(-c2cc3n(C)c(C)c(CCC(=O)O)c(=O)n3n2)cc(OC)c1OC	inactive: -6.76%	
CCOc1ccc(NC(=O)C2CCN(C(=O)N3CC(C)Oc4ccc(Cl)cc43)CC2)cc1 (stereo unspecified)	inactive: 0%	
CC(C)CC(=O)Nc1nnc(S(=O)(=O)N(CC(C)C)c2ccccc2)s1	inactive: 0%	
Cc1cc2oc(C(=O)Nc3ccc(S(=O)(=O)N(C)Cc4ccccc4)cc3)cc(=O)c2cc1C	inactive: -5.49%	
Cc1ccc(CNC(=O)CCC(=O)N2CC3CCCN3c3ccccc32)cc1 (stereo unspecified)	inactive: -14.9%	
O=C(Nc1ccc2oc(-c3cc(Br)ccc3Cl)nc2c1)c1cc2ccccc2o1		active: 4.14 µM
CCc1ccccc1N1CC(c2nc3ccccc3n2CCCOc2ccc(Cl)cc2)CC1=O (stereo unspecified)	inactive: 0.902%	
COc1ccccc1CNC(=O)c1cc2cc3ccc(Cl)cc3nc2o1	inactive: 0.531%	
COc1ccc(CCNC(=O)CCc2c(C)nc3c(c(C)nn3-c3ccc(C)c(C)c3)c2C)cc1OC	inactive: 1.8%	
COc1cc(OC)c(NC(=O)c2csc3c2CCC(C)C3)cc1Cl (stereo unspecified)	inactive: -3.04%	
COc1ccccc1N1CCN(c2ccc(NC(=O)c3ccc(C)cc3)cc2C(=O)O)CC1	inactive: 0.441%	
Cc1ccc(NC(=O)CCCn2c(=O)c3cccn3c3ccccc32)c(Cl)c1	inactive: 8.58%	
Cc1c(CNC2CCCCC2)c(C(=O)O)c(C)n1Cc1c(F)cccc1Cl	inactive: 2.57%	
COc1ccccc1OCCSc1nc(-c2ccc(C(C)(C)C)cc2)nc2cc(=O)[nH]n12	inactive: 4.6%	
Cc1ccc(CNC(=O)Cn2cc(S(=O)(=O)Cc3ccccc3Cl)c3ccccc32)cc1	inactive: -2.34%	

Compound	activity change, negative = inhibition	Potency
CCOc1ccc(NC(=O)C(CC)n2c(=O)c(-c3ccccc3NC(C)=O)nc3ccccc32)cc1 (stereo unspecified)	inactive: -7.03%	
O=C(CCOc1ccccc1)N(Cc1cccnc1)c1nc2c(F)cc(F)cc2s1	inactive: -19%	
Nc1nnc(SCC(=O)Nc2ccc(Cl)cc2)s1	inactive: 5.61%	
COc1ccc(CNC(=O)c2cnc3sc(N4CCOCC4)nn3c2=O)cc1	inactive: -0.307%	
COc1cc(OC)c(NC(=O)N2CCSc3ccccc32)cc1Cl	inactive: -2.2%	
O=C(CSC1=Nc2ccccc2C2=NC(CCC(=O)NC3CCCCC3)C(=O)N12)Nc1cccc(C(F)(F)F)c1 (stereo unspecified)	inactive: 4.84%	
COc1ccc(C(=O)Nc2cc3c(cc2C(=O)c2ccccc2Cl)OCCO3)cc1	inactive: -7.52%	
CCOC(=O)c1c(C)oc2nc(C)nc(NCCCN3CCN(c4ccccc4)CC3)c12	inactive: -8.97%	
COC(=O)C(CCSC)NC(=O)C1CCN(c2ncnc3c2nc2n3CCCCC2)CC1 (stereo unspecified)	inactive: 0.461%	
CCOc1ccc(NC(=O)CCc2c(C)nc3nc(C)nn3c2C)cc1	inactive: -0.551%	
CCOC(=O)c1c(NC(=O)CCCOc2ccccc2C)sc2c1CCC(C)C2 (stereo unspecified)	inactive: 2.68%	
Fc1ccc(-n2ncc3c(NC4CCCCCC4)ncnc32)cc1	inactive: -14.8%	
COc1ccccc1CNC(=O)c1ccc(Cn2c(SCc3ccccc3)nc3cccnc32)cc1	inactive: -5.81%	
CCNC(=O)CC1C(=O)N(c2ccc(F)cc2)C(=O)N1CCOC (stereo unspecified)	inactive: -0.552%	
N#Cc1ccccc1CN1C(=O)c2ccccc2Sc2ccc(C(=O)OCc3ccco3)cc21	inactive: -17.1%	
O=C(CCc1ccccc1)NCc1nc2cccnc2n1Cc1ccc(F)cc1	inactive: -5.01%	
CCOc1ccc(C(=O)N2CCC(c3nnc(-c4ccccc4OC)o3)CC2)cc1	inactive: -5.81%	
CCOC(=O)N1CCc2c(sc3c2c(=O)n(-c2ccccc2)c(=O)n3CC(=O)Nc2ccc(OC)cc2OC)C1	inactive: 1.47%	
COc1ccc(NC(=O)CN2CCN(Cc3ccccc3)S2(=O)=O)c(OC)c1	inactive: 0%	
CCOc1ccc(OCC)c(NC(=O)c2cc(S(=O)(=O)N3CCCC3)cn2C)c1	inactive: -1.08%	
CCC(Sc1nc2ncccc2[nH]1)C(=O)Nc1ccccc1F (stereo unspecified)	inactive: -4.08%	
COc1ccc2c(CNCc3cccs3)c(C(=O)O)n(Cc3ccccc3C)c2c1	inactive: 0.895%	
O=C(OCC1CCCO1)c1ccc2c(c1)N(Cc1ccc(F)cc1)C(=O)c1ccccc1S2(=O)=O (stereo unspecified)	inactive: 13.7%	
COc1cc(OC)c(N(C)C(=O)c2cc3c(s2)-c2ccccc2OC3)cc1Cl	inactive: 3.73%	

Compound	activity change, negative = inhibition	Potency
CCC(=O)NCc1nc2ccccc2n1Cc1ccccc1	inactive: -5.85%	
Cc1ccc(Cl)cc1NC(=O)N1CCC(CN2CCc3ccccc3C2)CC1	inactive: 1.01%	
CCCCOc1ccc(C(=O)Nc2ccc3c(c2)N(C(C)=O)CCC3)cc1	inactive: 0%	
Cn1cccc1-c1cc2n(n1)CCC(=O)N2CC(=O)Nc1ccc(F)cc1Cl	inactive: 0.563%	
Cc1ccc(S(=O)(=O)N2CCCc3cc(NC(=O)c4cccc(Cl)c4)ccc32)cc1	inactive: -0.154%	
COC(=O)c1ccc2c(=O)n(CCCCCC(=O)N3CCN(c4cccc(C)c4C)CC3)c(=O)[nH]c2c1	inactive: -0.655%	
CCOC(=O)c1c(C)[nH]c(C)c1S(=O)(=O)N1CCC(C(=O)NCc2ccc(OC)cc2)CC1	inactive: -1.65%	
Cc1c(NC(=O)Cc2ccccc2)cccc1-c1nc2cccnc2s1	inactive: -8.12%	
Cn1nc(-c2ccccc2F)c2cc(C(=O)N3CCN(c4ccccc4F)CC3)sc21	inactive: -14.1%	
CCOc1ccc(NC(=O)c2cc3nc(-c4ccc(OC)cc4)cc(C(F)(F)F)n3n2)cc1	inactive: -0.209%	
COCCCNc1nc2c(-c3cccc(Br)c3)nnn2c2ccccc12	inactive: -1.08%	
O=C(CSc1nc2c([nH]c3ccccc32)c(=O)n1-c1ccc(F)cc1)Nc1ccc2c(c1)OCCO2	inactive: -2.02%	
CCS(=O)(=O)N1CCc2cc(C(=O)NCc3ccc(C)cc3)ccc21	inactive: -0.494%	
CCC(Cn1nnc2ccccc2c1=O)NC(=O)Nc1ccccc1Cl (stereo unspecified)	inactive: -8.7%	
Cc1ccc(S(=O)(=O)N(CC(O)Cn2c3ccccc3c3ccccc32)c2cccc(C(=O)NCCO)c2)cc1 (stereo unspecified)	inactive: 1.77%	
COc1ccc(-c2nc3n(n2)C(c2ccccc2)C(C(=O)Nc2cccnc2)=C(C)N3)cc1 (stereo unspecified)	inactive: 1.24%	
COCCNC(=O)CN1C(=O)CCn2nc(-c3cn(C)c4ccccc34)cc21	inactive: -4.03%	
CCOC(=O)N1CCN(CCC(=O)Nc2cccc(F)c2)CC1	inactive: 0.402%	
Cc1c(C(=O)NCc2ccc(Cl)cc2)sc2nc3n(c(=O)c12)CCC3	inactive: 3.38%	
Cc1ccc(NC(=O)CC(c2ccc(F)cc2)N2Cc3ccccc3C2=O)cc1C (stereo unspecified)	inactive: -7.79%	
Cc1c(C(=O)O)oc2c1-c1nn(Cc3ccccc3Cl)cc1CC2	inactive: -2.93%	
COc1cc([C@@H]2Nc3c(F)cccc3[C@@H]3C=CC[C@@H]32)cc(Br)c1OC	inactive: -0.237%	
COc1ccc2c(Sc3ccc(C)cc3)c(C(=O)NC(C)c3ccccc3)[nH]c2c1 (stereo unspecified)	inactive: -13.1%	
CCc1ccccc1NC(=O)c1ccc(F)c(S(=O)(=O)N2CCN(c3ccccc3OC)CC2)c1	inactive: 1.28%	
